Patent US4400517A, “Phosphoric esters derived from 1,2,4-triazole having an insecticidal, nematocidal and acaricidal action, and their preparation” (priority 1976, dated 1983)
The name of at least one read-out is uncertain.

tested on: Hilemyia brassicae; assay: Biological activity on Hilemyia brassicae (Diptera); type: in vivo; settings: 50 ppm; Table 5; 14400 min
Procedure: (9) Biological activity on Hilemyia brassicae (Diptera)
Samples of soil were treated by uniform mixing with an aqueous dispersion of the products under examination (see Tables 4 and 5). The soil was then divided into two pots and in each of these 4 small radish plants were transplanted. The plants were subsequently infected by putting to the soil 50 Diptera eggs in the middle of the surface of the pots.
The results were recorded 10 days after treatment by extracting the plants from the soil and by counting the number of larvae present on the roots and on the surrounding soil.
The insecticidal activity was expressed as percentage of reduction of the infestation in comparison with the witness plants (plants transplanted into untreated soil, activity=0).

| SMILES | Activity (mortality class), Hylemyia S. |
| --- | --- |
| CCOP(=S)(OCC)Oc1nc(C=C(Br)Br)nn1C [M 8308] | ++ (100% of mortality) |
| CCOP(=S)(OCC)Oc1nc(C=C(Cl)Cl)nn1C [M 8174] | ++ (100% of mortality) |
| CCOP(=S)(OCC)Oc1nc(C(Cl)=C(Cl)Cl)nn1C [M 8560] | ++ (100% of mortality) |
| CCOP(=S)(OCC)Oc1nc(C(C)=C(Cl)Cl)nn1C [M 8550] | ++ (100% of mortality) |
| C=CCn1nc(C=C(Cl)Cl)nc1OP(=S)(OCC)OCC [M 8764] | ++ (100% of mortality) |
| CCOP(=S)(OCC)Oc1nc(C(C)=O)nn1-c1ccccc1 [M 7650] | + (70-99% of mort.) |
| CCOP(=S)(OCC)Oc1nc(C(C)OC)nn1-c1ccccc1 (centres unmarked) [M 8167] | ++ (100% of mortality) |
| CCOP(=S)(OCC)Oc1nc(C(C)O)nn1-c1ccccc1 (centres unmarked) [M 7853] | ++ (100% of mortality) |
| CCOP(=S)(OCC)Oc1nc(C(O)CSC)nn1-c1ccccc1 (centres unmarked) [M 9173] | ± (10-69% of mort.) |
| CCOP(=S)(OCC)Oc1nc(C=Cc2ccccc2)nn1C [M 8332] | ++ (100% of mortality) |
| CCCOP(=S)(OCCC)Oc1nc(C=C(Cl)Cl)nn1C [M 8448] | ++ (100% of mortality) |
| CC=C(Cl)c1nc(OP(=S)(OCC)OCC)n(C)n1 [M 8634] | ++ (100% of mortality) |
| CCOP(=S)(OCC)Oc1nc(C(=O)c2ccccc2)nn1-c1ccccc1 [M 7480] | ± (10-69% of mort.) |
| CCOP(=S)(OCC)Oc1nc(C(C)SC)nn1-c1ccccc1 (centres unmarked) [M 8170] | + (70-99% of mort.) |
